The text below walks through data of PubChem BioAssay (NCI).

One assay concerns CCRF-CEM leukemia. In words: NCI-60 one-dose screen, 48 h (100 = growth as untreated, 0 = no growth, -100 = all killed). The settings on record: 25 µM.
The subject of a further assay is MOLT-4 leukemia. Described as above. The settings on record: 0.25 µM.

Molecules are shown by their SMILES. The source holds several records for some structures; these can differ, active in one and inactive in another.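 Step 1: grow cells in 96-well plates. Step 2: add test compound at a single concentration. Step 3: incubate 48 h. Step 4: record percent growth.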 A number of entries come with more than one value. The list is limited to them. Rule for the calls: active = growth percent below 10; inactive = the rest. An entry can have further records. This drug was run again and again over the years, at its own concentration, as given; one value stands for one run. Additions like (4×) count equal records among those shown.

Regarding `COc1cccc2c1C(=O)c1c(O)c3c(c(O)c1C2=O)C[C@@](O)(C(=O)CO)C[C@@H]3OC1CC(N)C(O)C(C)O1` (stereo not given in full), the growth result in the assay with CCRF-CEM leukemia (runs of 1998) was “active: -30.4, 2.75, -6.67, -42, -57, -7.43, -54.9, -11.5, -27.5, -17.1, -33.2, 0.323, -16.9, -39.1, -33.7, -41.4, -32.1, -40.9, -28% and inactive: 99.1, 24.9, 35.8, 34.9, 14.4, 70.4%”; with CCRF-CEM leukemia (runs of 1999), “inactive: 18.5%, 11.5%, 13.6% and active: -43.2, 8.41, -79.5, 7.88%”; in the assay on CCRF-CEM leukemia (runs of 2000) it was “active: -29.5, -100, 6.18, -87.3%”; in the assay on MOLT-4 leukemia (runs of 2006), “active: 7.64%, -2.91%”; with MOLT-4 leukemia (runs of 2007), “active: 5.26, -3.21, -41.3, -7.48, -5.99, 6.07, -14.3, -2.45, 1.7, 2.44, 4.38, -8.23, -1.96, 4.75, -2.78, -4.74, -19.5, 0.16, 2.06, -1.2, 6.34, 8.17, -5.37, 1.22, 9.88, 6.58, 0.324, 6.23% and inactive: 20.5 (3×), 18.5, 15.1, 13.9, 12.5, 11.8, 16.3, 50.1, 27.6, 24, 17, 14.8%”; in the assay with MOLT-4 leukemia (runs of 2008), “inactive: 35.2, 12.5, 39.3, 36.4, 33, 84.4, 26.7, 23.4 (2×), 13.1, 60.7, 24.4, 27.4, 24.9, 16.3, 52.8, 13.3, 40.1, 58.6, 43.6, 47.6, 84.9, 11.6, 12, 15.2, 11.1 (2×), 35.8, 24.5, 22.8, 27.3, 20.2, 18.5, 46.7, 33.6% and active: -16, 1.6, 3.51, 6.53, -5.62, 0.968, -0.054, 1.88, 0.135, 3.42, 3.68, -9.84, -25.2, -20.4, -0.736, -12.2, -7.26, -6.42, -11, 7.88%”. In addition, the growth result in the assay on MOLT-4 leukemia (runs of 2009) is “active: 0.123, -0.75, 3.72, 6.09, -19.6, -12.3, 3.95, 5.66, 9.73, 3.92, 7.46, 4.03, 9.37, 9.28, 5.3, 8.72, 5.97% and inactive: 11, 12.6, 23.8, 18.6, 19.1 (2×), 35.3, 41.4, 15.2, 10.8, 16.6, 16 (2×), 11.9, 20.5 (4×), 22.7, 16.5 (3×), 22.1, 21.2 (2×), 32.9, 33.7, 11.8, 11.4, 17, 17.1, 24.8 (2×), 30.3, 19.5, 15.6, 20.9, 12.4, 14.1 (2×), 22.8, 20.6, 12.9, 15.1, 15.5, 17.4%”; in the assay on MOLT-4 leukemia (runs of 2010), “inactive: 13.2, 16.4, 13.5, 11.7, 10.3, 25.1, 18.6, 21.8, 28.1, 20.7 (2×), 22.7, 19.1, 19.5 (2×), 18.9, 21.5 (2×), 20.2, 15.1, 12 (2×), 11, 11.9 (2×), 13.4, 14.1, 17.4, 10.1, 20.5, 21.1 (2×), 11.3, 21.2, 13.6, 24.7, 21.4, 15.2, 19.9, 20.9, 14.6% and active: 0.668, 5.28, 9.75, 0.241, 9.85, 8.41, -0.924%”; with MOLT-4 leukemia (runs of 2011), “active: 1.97, 8.09, 8.62, 1.45, -32.1, 1.88, 7.32, -1.33, 7.95, 8.35, 4.81, 2.36, -0.141, -14.8, -4.19, -19.6, 4.72, -0.782, 2.6, -15.5% and inactive: 20.6, 14.8, 38.1, 10.1, 18.4, 19.2, 16.5 (2×), 11.4, 29.6, 12.6, 17.9 (2×), 20.7, 24.7, 32.2, 13.2, 13.9 (2×), 22.4, 12 (2×), 22.2, 17.2, 25.1, 30.8, 13.5, 18.5, 21.6, 11.9, 18.1, 16.3, 16.4, 12.9, 18.6, 13.3, 10.6, 10.2, 22.7, 15.8%”; in the assay on MOLT-4 leukemia (runs of 2012) it was “inactive: 15.3, 18.6, 14.5, 11.8, 15.5, 12.7, 11.1, 14.1, 13.1, 18.4, 17.7 (2×), 18.1, 28.1, 20.9, 10.2, 25.8, 20.2, 21, 27.6, 19.9, 12.6, 20.7, 34.2, 11.4% and active: 4.05, -0.682, 7.43, 1.05, 1.36, 0.15, -10.1, -3.65, -7.87, -10.4, -14.2 (2×), -9.32, -13.3, -3.41, -12.9, -10 (2×), -11.9, -7.48, 6.94, 3.27, 0.589, 9.93, -7.39, 4.29, 6.32, -0.634, -0.306, -2.52, 2.66, 5.99, 8.08, 7.26, 4.7, 4.91, 0.0501, -4.81, 9.65, -26.5, -5.08, 4.71, 6.29, 1.69, 6.76, 2.79, -6.42%”; in the assay on MOLT-4 leukemia (runs of 2013), “active: 5.04, 5.75, -3.28, 5.91, 5.94, 6.69, -8.02, -3.21, 5.56, 8.81, 3.5, -21.4, 7.51, 6.27, 9.17, 8.09, 8.53, 7.7, 6.67, 4.81, 3.9, 1.66, 1.3, 5.23, -11.2, 1.24, 0.784, 3.84, 8.87, 3.04, 4.42, 4.01, 7.83, 6.19, 9.18, 8.86, 8.94, 8.68, 8.97, 8.8, 9.65, 9.52, 8.02, 8.06, 0.25% and inactive: 13, 10, 11.8 (2×), 10.8 (2×), 11.6, 10.4, 18.1, 19.1, 12.9, 15.6, 13.9, 13.5, 11.5, 20.7, 13.6 (2×), 12.7, 17.4 (2×), 15.1, 11.9, 15.5, 17.5, 12, 21.3, 16.3%”; in the assay on MOLT-4 leukemia (runs of 2014), “inactive: 14.7, 11.8 (2×), 17.6 (2×), 14.2 (3×), 10.8, 14 (2×), 17.1, 13.5 (2×), 17.2, 17.9 (2×), 17.4, 10.7 (2×), 14.6, 10.1 (2×), 14.3, 22.9, 15.6, 10.6, 11.7 (3×), 16.1, 18.9, 11.1, 12.6 (2×), 13.2, 13.6, 12.5, 16, 11.6, 10.3 (2×), 12, 12.2, 14.8 (2×), 12.9, 11.4, 18.2, 13.1, 26.2, 22.2% and active: 8.41, 3.07, -5.99, 7.12, 7.79, 3.26, 4.3, 2.55, 7.68, 7.86, 8.68, 7.05, 9.67, 8.67, 3.53, 1.09, 4.55, 4.99, 5.49, 5.93%”. Besides, the growth entry was “inactive: 16.6 (2×), 16.4 (2×), 13.1, 21.6, 24.1 (2×), 15.6, 11.7, 18.8 (2×), 12 (3×), 33.9, 36.9, 10.2 (2×), 22.1, 17.4, 17.5, 20.3, 26, 13.4, 11.8, 10.3, 17.7, 17.6, 28.3, 27.3, 11.6, 12.6 (2×), 18.2, 20.6, 18.4 (2×), 13.5, 18.5, 18.9, 29 (2×), 31.5, 13.2, 11.3, 28.5, 17.9, 14.6% and active: 9.26, 8.83, 6.67, 6.63, 9.32, 9.28, 1.34, 2.83, 8.77, 8.15, 7.36, 9.82, 7.5, 9.31, 8.56, 8.71, 8.36, 9.87, 7.82, 8.75%” in the assay on MOLT-4 leukemia (runs of 2015); “inactive: 14.7 (2×), 11.1, 26.2, 13.3 (3×), 11.3 (2×), 11 (3×), 14.9 (2×), 16.3, 11.8 (2×), 10.7, 16.5, 20.1, 15.2, 18.1, 16, 10.2, 12, 13.4 (2×), 14.3, 18.6 (2×), 12.6, 14, 14.5, 17.9, 18.5, 11.6 (2×), 10.4, 21.4, 20.4, 19.5, 20.6, 13.2, 23.4, 24.9, 12.2 (2×), 16.4, 15.3, 13.6, 11.4% and active: 8.81, 9.16, 3.37, 8.25, 9.36, 9.96, 9.46, 8.66, 6.71, 9.79, 9.89%” in the assay with MOLT-4 leukemia (runs of 2016); “inactive: 12.9 (3×), 11.7 (2×), 10.4 (5×), 15.5, 12.2 (2×), 11.1 (5×), 14.3 (2×), 11.6 (3×), 13.4, 10, 17, 10.8, 12.4, 11.5, 17.9, 12.7 (2×), 14.2 (2×), 14.1, 14.9 (2×), 13.9, 13.1, 15.7, 16, 15.8, 11.3, 11.9, 18.6, 18.9% and active: 9.33, 9.53, 7.01, 6.15, 4.4, 9.89, 7.92, 9.35, 2.71, -5.05, 9.8, 9.25, 8.32, 6.62, 7.51, 8.33, 9.11, 6.24, 8.78, 9.75, 7.84, 9.28, 9.34, -2.61, 6.26, 9.29, 8.28, 9.05, 7.11%” in the assay with MOLT-4 leukemia (runs of 2017).
